Test results: the supplement of paper PMC4967469
IC50 is the fitted dose that halves viability relative to control wells, and lower means more sensitive; a limit (>, <) means that the fit lies beyond the doses tested. AUC sums up the same curve from the lowest dose to the 256-fold higher top dose; the more sensitive the line, the further below 1. A top dose marked as inferred is not printed in the source and was worked back from the curve model.

What was measured:
Test in all cases: Viability of human cancer cell lines after 72 h of drug (GDSC screen)
AG-014699 = compound: CNCc1ccc(-c2[nH]c3cc(F)cc4c3c2CCNC4=O)cc1 [AG-014699]; settings: top dose 5 µM; top dose inferred
Description: (§1)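 Human cancer cell lines in 384-well plates, medium with 10% serum, drug for 72 h over a 256-fold dose range (nine 2-fold or five 4-fold steps up to the top dose). Adherent lines were fixed and stained with the nucleic acid dye Syto60, suspension lines read with resazurin; signal relative to control wells, capped at 0 and 100%. One two-parameter sigmoid per drug and line, fitted in a mixed model over all curves with the slope shared within a line.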

EHT 1864 = compound: O=c1cc(CN2CCOCC2)occ1OCCCCCSc1ccnc2cc(C(F)(F)F)ccc12 [EHT 1864]; settings: top dose 10 µM; top dose inferred
Description: as §1

XL-184 = compound: COc1cc2nccc(Oc3ccc(NC(=O)C4(C(=O)Nc5ccc(F)cc5)CC4)cc3)c2cc1OC [XL-184]; settings: top dose 5.12 µM; top dose inferred
Description: as §1

QL-XI-92 = compound: C=CC(=O)Nc1cc(NC(=O)c2ccc(C)c(NC(=O)c3ccno3)c2)cc(C(F)(F)F)c1 [QL-XI-92]; settings: top dose 10.24 µM; top dose inferred
Description: as §1

NU-7441 = compound: O=c1cc(N2CCOCC2)oc2c(-c3cccc4c3sc3ccccc34)cccc12 [NU-7441]; settings: top dose 2 µM; top dose inferred
Description: as §1

Phenformin = compound: N=C(N)NC(=N)NCCc1ccccc1 [Phenformin]; settings: top dose 4000 µM; top dose inferred
Description: as §1

WHI-P97 = compound: COc1cc2ncnc(Nc3cc(Br)c(O)c(Br)c3)c2cc1OC [WHI-P97]; settings: top dose 10.24 µM; top dose inferred
Description: as §1

Vinorelbine = compound: CCC1=C[C@@H]2CN(C1)Cc1c([nH]c3ccccc13)[C@@](C(=O)OC)(c1cc3c(cc1OC)N(C)[C@H]1[C@@](O)(C(=O)OC)[C@H](OC(C)=O)[C@]4(CC)C=CCN5CC[C@]31[C@@H]54)C2 [Vinorelbine]; settings: top dose 0.064 µM; top dose inferred
Description: as §1

Cell Line	AUC (AG-014699)	IC50 (AG-014699)	AUC (EHT 1864)	IC50 (EHT 1864)	AUC (XL-184)	IC50 (XL-184)	AUC (QL-XI-92)	IC50 (QL-XI-92)	AUC (NU-7441)	IC50 (NU-7441)	AUC (Phenformin)	IC50 (Phenformin)	AUC (WHI-P97)	IC50 (WHI-P97)	AUC (Vinorelbine)	IC50 (Vinorelbine)
A427 (non-small cell lung carcinoma, adherent)	0.935	> 5 µM	0.935	> 10 µM	0.944	> 5.12 µM	0.961	> 10.2 µM	0.952	> 2 µM	0.612	510 µM	0.97	> 10.2 µM	–	–
A549 (lung adenocarcinoma, adherent)	0.958	> 5 µM	0.91	> 10 µM	–	–	–	–	0.839	1.62 µM	–	–	–	–	–	–
CHP-134 (neuroblastoma, suspension)	–	–	–	–	0.898	> 5.12 µM	0.904	> 10.2 µM	0.882	> 2 µM	0.98	> 4000 µM	0.961	> 10.2 µM	–	–
Calu-3 (lung adenocarcinoma, adherent)	0.925	> 5 µM	0.96	> 10 µM	0.909	> 5.12 µM	0.983	> 10.2 µM	0.973	> 2 µM	0.923	> 4000 µM	0.975	> 10.2 µM	–	–
HCC202 (breast, adherent)	0.981	> 5 µM	0.956	> 10 µM	0.976	> 5.12 µM	–	–	0.95	> 2 µM	0.383	105 µM	0.927	> 10.2 µM	–	–
HCC-827 (lung adenocarcinoma, adherent)	0.954	> 5 µM	0.944	> 10 µM	0.962	> 5.12 µM	0.973	> 10.2 µM	0.898	> 2 µM	–	–	0.769	4.45 µM	–	–
HCT-116 (large intestine, adherent)	0.903	> 5 µM	0.957	> 10 µM	–	–	0.919	> 10.2 µM	0.987	> 2 µM	–	–	0.982	> 10.2 µM	–	–
IGROV-1 (ovary, adherent)	0.964	> 5 µM	0.962	> 10 µM	–	–	–	–	0.902	> 2 µM	–	–	–	–	–	–
J82 (bladder, adherent)	0.949	> 5 µM	0.967	> 10 µM	0.972	> 5.12 µM	0.969	> 10.2 µM	–	–	0.862	3410 µM	0.978	> 10.2 µM	0.897	> 0.064 µM
KOSC-2 (head and neck, adherent)	0.905	> 5 µM	0.951	> 10 µM	0.897	> 5.12 µM	0.985	> 10.2 µM	–	–	0.679	812 µM	0.985	> 10.2 µM	0.824	0.0405 µM
KYSE-180 (oesophagus, adherent)	0.98	> 5 µM	0.988	> 10 µM	0.833	3.09 µM	0.98	> 10.2 µM	–	–	0.382	121 µM	0.938	> 10.2 µM	0.531	0.00483 µM
KYSE-270 (oesophagus, adherent)	0.951	> 5 µM	0.991	> 10 µM	0.959	> 5.12 µM	0.983	> 10.2 µM	–	–	0.924	> 4000 µM	0.889	8.65 µM	0.437	0.00277 µM
LU-99A (large cell lung carcinoma, adherent)	0.878	> 5 µM	0.981	> 10 µM	0.963	> 5.12 µM	0.987	> 10.2 µM	–	–	0.633	579 µM	0.966	> 10.2 µM	0.595	0.00728 µM
MCF7 (breast, adherent)	0.895	> 5 µM	0.884	> 10 µM	–	–	0.986	> 10.2 µM	0.973	> 2 µM	0.37	108 µM	0.986	> 10.2 µM	–	–
ML-1 (thyroid, adherent)	0.96	> 5 µM	0.96	> 10 µM	0.902	> 5.12 µM	0.961	> 10.2 µM	–	–	0.968	> 4000 µM	0.966	> 10.2 µM	0.466	0.00317 µM
NCI-H23 (lung adenocarcinoma, adherent)	0.949	> 5 µM	0.95	> 10 µM	0.969	> 5.12 µM	0.89	> 10.2 µM	0.963	> 2 µM	0.82	2270 µM	0.892	> 10.2 µM	–	–
NCI-H196 (small cell lung carcinoma, adherent)	0.962	> 5 µM	0.988	> 10 µM	0.941	> 5.12 µM	0.884	> 10.2 µM	–	–	0.573	401 µM	0.986	> 10.2 µM	0.947	> 0.064 µM
NCI-H292 (lung adenocarcinoma, adherent)	0.89	> 5 µM	0.917	> 10 µM	0.824	3.95 µM	0.979	> 10.2 µM	–	–	0.261	44 µM	0.649	1.82 µM	0.563	0.00617 µM
NCI-H358 (lung adenocarcinoma, adherent)	0.976	> 5 µM	0.97	> 10 µM	0.895	> 5.12 µM	0.925	> 10.2 µM	0.984	> 2 µM	0.64	639 µM	0.805	5.84 µM	–	–
NCI-H460 (large cell lung carcinoma, adherent)	0.814	2.39 µM	0.964	> 10 µM	–	–	0.989	> 10.2 µM	0.971	> 2 µM	0.85	2590 µM	0.984	> 10.2 µM	–	–
